Measured values reported in PubChem BioAssay AID360 (National Center for Advancing Translational Sciences (NCATS), 2006).
In all, about 48,000 compounds went through this assay and about 550 (1.1%) were called active. Inconclusive results (about 4%) are left out. Rule as the data show it: active = potency below about 15 µM; inconclusive = mostly about 16 µM to 33 µM; inactive = weaker than that. The list shows a part of the results.

molecular target: Lysosomal acid glucosylceramidase (Homo sapiens) (UniProt P04062); experiment: Glucocerebrosidase; conditions: purified enzyme, resorufin glucoside fluorescence (screen aimed at inhibitors), 20 min;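 also: the screen sought inhibitors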
UniProt P04062, sequence (P04062 whole entry, looked up): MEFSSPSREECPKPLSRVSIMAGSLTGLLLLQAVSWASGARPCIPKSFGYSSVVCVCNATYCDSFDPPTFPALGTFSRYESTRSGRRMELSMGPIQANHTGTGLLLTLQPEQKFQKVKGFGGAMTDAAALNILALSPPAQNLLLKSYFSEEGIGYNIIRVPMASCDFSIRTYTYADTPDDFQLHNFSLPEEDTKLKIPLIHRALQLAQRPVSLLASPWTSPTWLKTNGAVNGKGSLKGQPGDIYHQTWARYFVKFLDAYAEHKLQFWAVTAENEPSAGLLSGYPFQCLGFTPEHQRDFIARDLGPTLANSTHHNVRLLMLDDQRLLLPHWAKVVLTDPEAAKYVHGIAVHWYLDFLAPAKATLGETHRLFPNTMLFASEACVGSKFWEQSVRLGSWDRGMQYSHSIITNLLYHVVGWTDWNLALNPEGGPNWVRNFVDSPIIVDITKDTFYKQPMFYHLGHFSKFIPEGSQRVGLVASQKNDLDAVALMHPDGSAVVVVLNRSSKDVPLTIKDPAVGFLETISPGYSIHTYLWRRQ
Method in brief: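 Compounds titrated against 0.2 nM normal enzyme, 30 uM resorufin beta-D-glucopyranoside substrate, citrate/phosphate buffer with taurocholate and tween-20, pH 5.9. Reaction ran 20 min at room temperature; fluorescence (Ex 548/Em 600) gave AC50.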
Potency is read from the fitted curve at half-maximal effect.

Potency, inactive:
O=C(OCCCCN1C(=O)c2ccccc2C1=O)c1n[nH]c2ccccc12 > 76.9 µM
CC1CCN(C(=O)CSc2nnc(CNC(=O)c3ccco3)o2)CC1 > 76.9 µM
O=C(NCC(=O)N(c1cccnc1)C(C(=O)NC1CCCC1)c1ccco1)c1cccs1 (stereo unspecified) > 76.9 µM
CN(C(=O)c1ccccc1Cl)c1ccccc1 > 76.9 µM
CC(=O)N1c2ccccc2C(=O)OC1c1cccnc1 (stereo unspecified) > 76.9 µM
CCc1ccccc1-n1c(SCC(=O)N2CCCC2)nnc1-c1ccccn1 > 76.9 µM
CC(=O)c1ccccc1OCCCN1CCCCC1 > 76.9 µM
CCOC(=O)c1c(C)[nH]c(C(=O)COC(=O)c2ccc(F)c(S(=O)(=O)N3CCOCC3)c2)c1C > 76.9 µM
CCCCS(=O)(=O)NC1=NCN(Cc2ccco2)CN1 > 76.9 µM
COc1cc2[nH]c(=O)n(CCCCCC(=O)N3CCN(c4ccccn4)CC3)c(=O)c2cc1OC > 76.9 µM
COc1ccc(OC)c(N/C(=N\c2nc(C)cc(C)n2)NC(=O)c2ccco2)c1 > 76.9 µM
Cn1c(=O)cc(SCC(=O)N2CCN(c3ccccn3)CC2)c2ccccc21 > 76.9 µM
O=C(CSc1nccc(=O)[nH]1)Nc1ccc(F)c(Cl)c1 > 76.9 µM
COc1ccccc1NC(=O)CSc1nc2ccccc2n1C(C)=O > 76.9 µM
c1csc(Cc2nn3c(-c4n[nH]c5c4CCC5)nnc3s2)c1 > 76.9 µM
COc1ccc(OC)c(-c2cc(C(=O)Nc3c(C)n(C)n(-c4ccccc4)c3=O)no2)c1 > 76.9 µM
COC(=O)CCc1c(C)nn(-c2ccccc2)c1C > 76.9 µM
O=C(CCCN1C(=O)c2ccccc2C1=O)Nc1sc2c(c1C(=O)NCc1ccco1)CCC2 > 76.9 µM
CCOc1ccccc1C(=O)N(C)Cc1cc2cc(OC)ccc2[nH]c1=O > 76.9 µM
CCOC(=O)c1cccc(NC(=O)c2cnc3ccccc3n2)c1 > 76.9 µM
Cc1cc(C)cc(N2CCN(C(=O)N3CCOCC3)CC2)c1 > 76.9 µM
COc1ccc(Cc2nnc(SCC(=O)NC3CCCCC3)n2C)cc1 > 76.9 µM
COc1cccc(-c2cc(C(=O)NCCN3CCOCC3)no2)c1
O=S(=O)(c1ccc2nc(Cc3ccccc3)[nH]c2c1)N1CCOCC1 > 76.9 µM
CCOC(=O)c1c(CN2CCOCC2)oc2ccc(OC)cc12 > 76.9 µM
Cc1ccc(C(=O)CS(C)(=O)=O)cc1 > 76.9 µM
CCC/C(O)=C1\C(=O)CCCC1=NC(C)C(=O)O (stereo unspecified) > 76.9 µM
COc1ccccc1-c1nc(C(N)=O)c2[nH]c(=O)n(-c3cccc(C)c3)c2n1 > 76.9 µM
O=C(CS(=O)(=O)Cc1ccccc1)Nc1ccccn1 > 76.9 µM
CN1CCN(CP(=O)(N2CCOCC2)N2CCOCC2)CC1 > 76.9 µM
c1ccc(OCc2nn3c(Cn4cnc5ccccc54)nnc3s2)cc1 > 76.9 µM
COc1ccc(NC(=O)Cc2ccc(Cl)cc2)cc1NC(=O)c1ccco1 > 76.9 µM
CCNC(=O)N1C(=O)C2(OCCO2)c2cc(Br)ccc21
Cc1ccc(N2CC(C(=O)NC3=NCCS3)CC2=O)cc1 (stereo unspecified) > 76.9 µM
Cc1nc2ccccn2c1/C(O)=C1\C(=O)C(=O)N(CCN(C)C)C1c1cccnc1 (stereo unspecified) > 76.9 µM
COc1ccc2nc(NC(=O)CSc3nnc(-c4ccoc4C)n3C)sc2c1 > 76.9 µM
CC(=O)N1CCCc2cc(S(=O)(=O)N(C)CCC#N)ccc21 > 76.9 µM
CCN(CC)C(=O)C1CCCN(c2ncnc3c2cnn3-c2cccc(C)c2)C1 (stereo unspecified) > 15.4 µM
Brc1ccc(-c2csc(/N=C/N3CCOCC3)n2)cc1 > 76.9 µM
O=C(O)C(CC(=O)N1CCOCC1)NCc1ccccc1 (stereo unspecified) > 76.9 µM
CN1CCc2c(sc3c2c(=O)n(-c2cccc(Cl)c2)c2nncn32)C1 > 76.9 µM
N#Cc1c(C#N)c(-c2ccccc2)n(-c2ccc(C(=O)O)cc2)c1N > 76.9 µM
Cc1ccccc1Oc1ccc(S(=O)(=O)NCCC(=O)O)cc1 > 76.9 µM
CCc1c(C)sc(NC(=O)c2cc(C)on2)c1C#N > 76.9 µM
CCOC(=O)c1sc(NCc2ccco2)c(-c2nc3ccccc3s2)c1N
O=C(Cn1c(=O)c2c(ncn2C2CCCC2)n(Cc2ccccc2)c1=O)N1CCc2ccccc21 > 76.9 µM
COc1ccc(C2C(C(=O)N3CCCCC3)CCC(=O)N2c2cc(OC)c(OC)c(OC)c2)cc1 (stereo unspecified) > 76.9 µM
Cc1ccnc(N2CCC(C(=O)Nc3ccc4c(c3)CCC4)CC2)n1 > 76.9 µM
O=C(CSc1nnc(SCc2ccc(Cl)cc2)s1)N1CCN(C(=O)c2ccco2)CC1 > 76.9 µM
COc1ccccc1OCc1nnc(SCCN2CCOCC2)o1 > 76.9 µM
Cc1cc2oc(=O)cc(CN3CCN(C/C=C/c4ccccc4)CC3)c2cc1O > 76.9 µM
CS(=O)(=O)N(CC(=O)N1CCN(c2cccc(Cl)c2)CC1)c1cccc(F)c1 > 76.9 µM
O=C(CCS(=O)(=O)c1cccs1)NC1CCCCCC1 > 76.9 µM
O=C(Nc1nnc(C2CCCO2)s1)c1cccs1 (stereo unspecified) > 76.9 µM
COc1ccc(-c2nnc(SCC(=O)Nc3ccccc3OC)o2)cc1 > 76.9 µM
CCn1cc(C(=O)OCC(=O)OC2CC(C)CCC2C(C)C)c(=O)c2ccc(C)nc21 (stereo unspecified) > 76.9 µM
O=C(CCC(=O)c1cccs1)Nc1nnc(C2CC2)s1 > 76.9 µM
COc1ccc(NC2CS(=O)(=O)CC2OC(=O)c2ccc(F)cc2)cc1 (stereo unspecified) > 76.9 µM
O=C(O)CCC(=O)OCC1CCCO1 (stereo unspecified) > 76.9 µM
O=C(NC1CCCCC1)N1CCc2[nH]c3ccccc3c2C1 > 76.9 µM
CCC(=O)Nc1ccc(OC)cc1OC > 76.9 µM
Cn1c(=O)c2c(nc(Br)n2CC(=O)C23CC4CC(CC(C4)C2)C3)n(C)c1=O > 76.9 µM
O=C1c2ccccc2C2NC(=O)C3(CCCCC3)N12 (stereo unspecified) > 76.9 µM
O=C(OCc1c(F)cccc1Cl)c1cnccn1 > 76.9 µM
Cc1sc2nc(C(C)C)nc(SCC(=O)N3CCN(C(=O)c4ccco4)CC3)c2c1C > 76.9 µM
Cn1c(SCC(=O)c2ccccc2)nnc1-c1cnccn1 > 76.9 µM
COCc1[nH]nc2c1C(c1cc(OC)c(O)c(OC)c1)C(C#N)=C(N)O2 (stereo unspecified) > 76.9 µM
Cc1ccc(-c2csc3nnc(SCc4csc(C)n4)n23)cc1 > 76.9 µM
N#CCCN(CCC#N)C(=O)c1ccc2c(c1)OCO2 > 76.9 µM
CN(C)/C=N/c1c(C#N)cnn1-c1ccc(C(F)(F)F)cn1 > 76.9 µM
O=C(NCc1ccco1)[C@@H]1CSC2c3ccccc3C(=O)N21 (stereo partly specified) > 76.9 µM
Cc1ccc(-c2nn(CC(=O)Nc3ccc4c(c3)nc3n4CCOC3)c(=O)c3ccccc23)cc1 > 76.9 µM
CCOC(=O)C1CCN(C(=O)c2cc(S(=O)(=O)N3CCOCC3)c(Cl)cc2Cl)CC1 > 76.9 µM
Cc1ccc(-n2nc3c(c2NC(=O)c2c(-c4ccccc4Cl)noc2C)CS(=O)(=O)C3)c(C)c1 > 76.9 µM
Cc1c(C(=O)O)sc2ncn(C)c(=O)c12 > 76.9 µM
CCOc1ccc(OCC)c(NC(=O)c2[nH]c(C)c(C(C)=O)c2C)c1 > 76.9 µM
CCOC(=O)CSc1cc(C)nc(N)n1 > 76.9 µM
Cc1ccc(CN(C(=O)c2c(F)cccc2F)C2CC(C)(C)NC(C)(C)C2)o1 > 76.9 µM
COc1ccc(CCn2c(C)cc(C(=O)CSc3nnnn3C)c2C)cc1 > 76.9 µM
COc1ccc(C)cc1NC(=O)CSc1nnc(-c2ccccn2)n1Cc1ccco1 > 76.9 µM
CCn1c(SCC#N)nc2c(c1=O)C1(CCCC1)Cc1ccccc1-2 > 76.9 µM
CCCC(=O)N(CCc1ccccc1)Cc1nc2ccccc2c(=O)[nH]1 > 76.9 µM
COc1cccc(OCc2nnc(SCC(=O)OC3CCCCC3)n2C)c1 > 76.9 µM
O=C(O)CCc1ccc(-c2ccccc2)n1CC(=O)O > 76.9 µM
COc1cc(C(=O)Nc2ccc3c(c2)OCO3)ccc1-n1cnnn1 > 76.9 µM
O=C(CC1COc2ccccc2O1)Nc1ccccn1 (stereo unspecified) > 76.9 µM
CCCOc1c(OC)cccc1C1CC(=O)Nc2cc(OC)c(OC)c(OC)c21 (stereo unspecified) > 76.9 µM
COc1ccc(CCNC(=O)C2CCCN(Cc3nc(-c4cccc(Cl)c4)oc3C)C2)cc1OC (stereo unspecified)
O=C(CSc1nc2ccccc2c(=O)n1C1CC1)NCc1ccccc1 > 76.9 µM
CCCOc1ccccc1-c1nc(SCCC(=O)O)n[nH]1 > 76.9 µM
O=C(CCn1ccc2ccccc21)Nc1ccc(N2CCOCC2)cc1 > 76.9 µM
